# Measurements reported in PubChem BioAssay AID588855 (National Center for Advancing Translational Sciences (NCATS), 2011).
# The whole screen tested about 410,000 compounds, of which about 5,000 (1.2%) were called active. Inconclusive means that the source gave no clear call. Such entries were picked first, then a sample of the others. The call rests on the fitted dose curve; in most records, active means well fitted inhibition curve with a large enough effect; inconclusive means small, poorly fitted or top-dose-only effect; inactive means no such curve, though single readings can be large or run the other way. Potencies beside an inconclusive call are fits to weak or partial responses and may not hold up.
# Assay: qHTS for Inhibitors of TGF-b; further: nearly all actives have a fitted effect of over 65% in size
# Settings: HepG2 CAGA-GFP TGF-b/SMAD3 reporter, GFP fluorescence, 18 h, TGF-beta stimulated, 500 pg/mL final; series mostly up to 46.1 µM; activity, negative = inhibition: at the top concentration
# Method in brief: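 GFP signal (ex488/em500-530) from TGF-beta-stimulated HEPG2 CAGA-GFP cells, 500 pg/mL final, 18 h at 37 degrees C in DMEM plus 1% FBS, normalized to unstimulated and DMSO-stimulated controls.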
# On the % scale 0 is the no-effect control and ±100 the full control effect; potency means the concentration at half of the fitted maximal effect; tags describe the fitted curve by direction and shape.
Structure (SMILES),"activity, negative = inhibition",Potency
CCOc1ccc(CN2C(=O)c3ccccc3Sc3ccc(C(=O)NCCc4ccccc4)cc32)cc1,inactive: 0%,
O=S(=O)(c1c(F)cccc1F)N1CCCC2CCCCC21 (stereo unspecified),,"inconclusive: 3.16 µM [inhibitor, single point]"
O=C(Nc1ccccc1)[C@@H]1CC=C[C@@H]2CCN(Cc3ccc(Cl)c(Cl)c3)C(=O)[C@@H]21,,active: 12.6 µM
O=C1CC/C=C\C[C@@H](CC(=O)N(CCO)Cc2ccccc2)C(=O)NCCO1,inactive: 1.3%,
COc1ccc(C=NCC2COc3ccccc3O2)cc1OC (stereo unspecified),inactive: -11.7%,
O=C(NCCc1ccc(Cl)cc1)c1ccc(Cn2c(=O)[nH]c3ccccc3c2=O)cc1,inactive: -0.611%,
CCC(=O)c1cn(CC(=O)Nc2cc(C)ccc2C)c2ccccc12,,"inconclusive: 2.82 µM [inhibitor, single point]"
CN(N=O)c1ccc(/C=C/c2ccnc3ccccc23)cc1,inactive: -4.54%,
Cc1oc(-c2ccc(Cl)cc2)nc1CS(=O)CC(=O)NCCCN1CC(C)CC(C)C1 (stereo unspecified),,"inconclusive: 35.5 µM [inhibitor, single point]"
COc1ccc(CN2CC[C@@H]3CN(C(C)=O)[C@H](c4ccccc4Br)C[C@@H]32)cc1,,"inconclusive: 20 µM [inhibitor, single point]"
CCN(CC)CCNCC1C(=O)O[C@@H]2C[C@@]3(C)CCC[C@H](C)C3=C[C@H]12 (stereo partly specified),,"inconclusive: 17.8 µM [inhibitor, single point]"
COc1ccc(C(CNC(=O)c2cc3ccccc3cc2O)N2CCOCC2)cc1 (stereo unspecified),,"inconclusive: 10 µM [inhibitor, partial curve, poor fit]"
CCS(=O)(=O)NCC(c1ccco1)N1CCN(c2ccccc2)CC1 (stereo unspecified),,inactive
Cc1ccc(-c2nnc(Nc3ccc4c(c3)OCO4)c3ccccc23)cc1S(=O)(=O)NC(C)C,,"inconclusive: 17.8 µM [inhibitor, single point]"
O=c1n(Cc2ccccc2)c(O)c2n1Cc1ccccc1N=C2c1ccccc1,inactive: -27.6%,
CC(=O)OCCN1c2ccccc2Sc2cnccc21,,"inconclusive: 31.6 µM [inhibitor, single point]"
Cc1ccc(C(=O)OC(C)C(=O)Nc2ccc3c(c2)OCO3)c(O)c1 (stereo unspecified),,"inconclusive: 35.5 µM [inhibitor, single point]"
CCc1cccc(NC(=O)Cn2cc(C=O)c3ccccc32)c1,,"inconclusive: 25.1 µM [inhibitor, single point]"
CC(C(=O)Nc1ccccc1C(F)(F)F)n1nnc2sc3c(c2c1=O)CCCC3 (stereo unspecified),inactive: -30.2%,
Cc1ccccc1NS(=O)(=O)c1cc(C(=O)Nc2ccccc2-c2ccccc2)ccc1Cl,,"inconclusive: 22.4 µM [inhibitor, single point]"
CC1(C(=O)NS(=O)(=O)c2cccs2)CCN1C(=O)c1ccco1 (stereo unspecified),inactive: -2.01%,
O=C(CCSc1nc(-c2ccco2)cc(C(F)(F)F)n1)N1CCCc2ccccc21,,"inconclusive: 35.5 µM [inhibitor, single point]"

Structure (SMILES),"activity, negative = inhibition",Potency
C/C(CC(=O)Nc1ccccc1F)=N\NC(=O)Cc1ccc(Cl)cc1,,"inconclusive: 14.1 µM [inhibitor, single point]"
COc1ccc(NC(=O)c2c3c(nc4ccccc24)CCN(Cc2ccccc2)C3)c(OC)c1,,"inconclusive: 17.8 µM [inhibitor, partial curve, poor fit]"
CC1=NN(c2ccccc2)C(=O)/C1=C/c1c(O)n(-c2ccc(F)cc2)[nH]c1=O,,"inconclusive: 11.2 µM [inhibitor, partial curve, poor fit]"
CCc1ccc(C(c2ccccc2)c2c[nH]c3ccc(C)cc23)s1 (stereo unspecified),,"inconclusive: 35.5 µM [inhibitor, single point]"
O=[N+]([O-])c1cc2oc3c(c2c(C=NCc2ccncc2)c1O)CCCC3,,"inconclusive: 14.1 µM [inhibitor, partial curve, poor fit]"
Cc1ccc(-c2nc3cc(NS(=O)(=O)c4ccc(C)cc4)ccc3o2)cc1,,"inconclusive: 35.5 µM [inhibitor, single point]"
CCc1cccc(-n2nnc(-c3nsc(NC(=O)c4ccc(C)cc4)n3)c2C)c1,,"inconclusive: 7.08 µM [inhibitor, full curve, poor fit]"
COC(=O)c1ccc(/C=C/C(=O)c2cccc(OC)c2)cc1,,"inconclusive: 35.5 µM [inhibitor, single point]"
Cc1sc2ncn(CC(=O)N3CCN(c4ccccc4)CC3)c(=O)c2c1S(=O)(=O)N1CCN(c2ncccn2)CC1,,"inconclusive: 15.8 µM [inhibitor, single point]"
COc1cc2c(cc1OC)C(COc1cc(C)cc(C)c1)N(C(C)=O)CC2 (stereo unspecified),inactive: -9.12%,
CCOc1cc(NC(=S)NCc2ccco2)c(OCC)cc1NC(=O)CC(C)C,inactive: 2.81%,
CCOc1cc(N2CCOCC2)c(OCC)cc1NC1=NCCCCC1,,"inconclusive: 15.8 µM [inhibitor, single point]"
C[C@H]1CN([C@@H](C)CO)S(=O)(=O)c2ccc(-c3ccccc3)cc2O[C@H]1CN(C)C(=O)C1CCC1,inactive: -0.407%,
Cc1ccc(NC(=O)CN(C)S(=O)(=O)c2cccc3cccnc23)cc1F,,"inconclusive: 28.2 µM [inhibitor, single point]"
CCn1c(=O)c2cc(C(=O)N3CCN(c4cccc(OC)c4)CC3)sc2c2ccccc21,,"inconclusive: 2.82 µM [inhibitor, full curve, poor fit]"
NC(=O)c1cc([N+](=O)[O-])c(Cl)cc1NCc1ccncc1,,"inconclusive: 3.16 µM [inhibitor, full curve]"
O=C(Nc1nc(-c2ccc3c(c2)OCO3)cs1)C1COc2ccccc2O1 (stereo unspecified),,"inconclusive: 6.31 µM [inhibitor, single point]"
C/C(=N\NC(=O)c1cc(-c2ccc(C)s2)nc2ccccc12)c1cccnc1,inactive: 1.04%,
CCOC(=O)C[C@H]1c2cc(F)ccc2S(=O)(=O)N1C(C)C,,"inconclusive: 35.5 µM [inhibitor, partial curve, poor fit]"
CCOc1ccc(Nc2nc(C)c(NC(=O)c3ccc(C)cc3)c(Nc3ccc(OCC)cc3)n2)cc1,,"inconclusive: 2.24 µM [inhibitor, full curve]"
CCc1ccccc1NC(=S)N1CCCCCC1,inactive: -7.09%,
Cc1ccccc1NC(=O)C(=O)NCC1(c2ccccc2)CCCC1,,"inconclusive: 2.82 µM [inhibitor, single point]"

Structure (SMILES),"activity, negative = inhibition",Potency
CN(CC(=O)Nc1c(Cl)cccc1Cl)C(=O)Cc1ccsc1,inactive: 1.84%,
CSc1ccc(CCNC(=O)c2ccc3c(c2)nc2n3CCCCC2)cc1,,"inconclusive: 15.8 µM [inhibitor, single point]"
CCOC(=O)Cn1c(=O)n(C2CCCCC2)c2nc(-c3ccc(OCC)cc3)nc(C(N)=O)c21,inactive: -19.3%,
COc1ccc(C2CC(=O)c3cnc4c(-c5ccccc5)c(C)nn4c3C2)cc1OC (stereo unspecified),,"inconclusive: 0.0891 µM [inhibitor, full curve, poor fit]"
O=C(/C=C/c1ccc([N+](=O)[O-])cc1)c1ccco1,,"inconclusive: 6.31 µM [inhibitor, single point]"
Cc1ccc(C)c(N(CC(=O)N/N=C/c2ccc(-c3ccc([N+](=O)[O-])cc3)o2)S(=O)(=O)c2ccccc2)c1,,"inconclusive: 0.562 µM [inhibitor, full curve, poor fit]"
N#CCSc1nc2ccccc2c(=O)n1CCC(=O)NC1CCCCC1,,"inconclusive: 2.82 µM [inhibitor, full curve, poor fit]"
O=C(O)CCCCCNS(=O)(=O)c1cccc2c1C(=O)c1ccccc1C2=O,,"inconclusive: 35.5 µM [inhibitor, single point]"
COc1ccc(CCNC2CC(=O)N(CCc3ccccc3)C2=O)cc1 (stereo unspecified),,"inconclusive: 0.708 µM [inhibitor, full curve]"
CCOC(=O)c1c(C)oc2c1c(C=NCc1ccccn1)c(O)c1ccccc12,,"inconclusive: 2.82 µM [inhibitor, full curve]"
COc1cccc(/C=C2\CCc3ccccc3C2=O)c1,,"inconclusive: 35.5 µM [inhibitor, single point]"
CC(C)c1ccc(NC(=O)C2CCCN(S(=O)(=O)c3cccc4nsnc34)C2)cc1 (stereo unspecified),,"inconclusive: 2.82 µM [inhibitor, full curve, poor fit]"
Nc1cc(S(=O)(=O)Nc2ccccc2Cl)ccc1N1CCCC1,,"inconclusive: 35.5 µM [inhibitor, single point]"
COc1ccc(-c2coc3c(C(=O)NCc4cccc(Cl)c4)cccc23)c(C)c1,inactive: -26.3%,
CCOC(=O)COc1cccc2c(=O)n(CC(=O)N3CCC(C)CC3)ccc12,inactive: 2.89%,
COc1ccc(Cn2ccnc2SCC(=O)NC2CCCC2)cc1,,"inconclusive: 28.2 µM [inhibitor, single point]"
CCOC(=O)Cn1nnnc1C(CC)N(Cc1cccs1)Cc1cc2cc(C)ccc2[nH]c1=O (stereo unspecified),inactive: -17.2%,
O=C(Nc1ccc(Br)c2ccccc12)c1ccc2ccccc2c1O,,"inconclusive: 2.51 µM [inhibitor, partial curve, poor fit]"
CC(C)Nc1nc(-c2ccccc2F)c2sc(-c3ccccc3)cc2n1,inactive: 21.6%,
C=C1CCN([C@@H](C)C(=O)OCc2cccc(C)c2)S(=O)(=O)c2ccccc21,,"inconclusive: 14.1 µM [inhibitor, partial curve, poor fit]"
CCCOc1ccc(/C=C/c2c([N+](=O)[O-])c(=O)n(C)c(=O)n2C)cc1,inactive: -3.42%,
CCc1ccc(CNC(=O)C2CCCN(c3nnc(C)c4c(C)n(-c5ccc(OC)cc5)nc34)C2)cc1 (stereo unspecified),,active: 11.2 µM
